Here are results for 22 molecules from article PMC12136788.

Some of the results follow.

To fix the notation:
T1: UNK ZnF1-6 (called full-length) (human, UniProt Q9C0B0 30-357)
T1 sequence: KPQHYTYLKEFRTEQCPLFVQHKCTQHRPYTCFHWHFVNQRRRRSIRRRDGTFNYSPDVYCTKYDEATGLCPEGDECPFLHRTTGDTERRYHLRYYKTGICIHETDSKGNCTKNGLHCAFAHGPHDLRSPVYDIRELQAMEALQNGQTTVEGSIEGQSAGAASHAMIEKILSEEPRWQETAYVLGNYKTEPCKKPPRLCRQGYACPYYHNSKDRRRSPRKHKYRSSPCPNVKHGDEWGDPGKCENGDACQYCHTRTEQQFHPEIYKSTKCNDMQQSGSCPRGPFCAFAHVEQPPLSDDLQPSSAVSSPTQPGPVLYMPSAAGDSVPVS

B1: chr1:114567884:114567985:-|3pUTR|ENSG00000116752|msi1|FALSE|bound_elsewhere (ssRNA)
RNA: GGGAGUUCUACAGUCCGACGAUCUGGUAAUUCUAUUUGUAUAUCUCAACAGAAUUAAAAUGUCUAGCUUGGUGGUAUUUUUAUAGCCAUAAAAGAAAAUCUUUAGGCUUUCAAAAUAAGGAUGACUUUAGAAUAAUAUUGUGUCAACAGAGGAUUGAGCAUCA
B2: chr1:53952023:53952124:+|CDS|ENSG00000116212|msi1|total|mutant (ssRNA)
RNA: GGGAGUUCUACAGUCCGACGAUCUACAUGCGAGAAAAUGGGCAGCUGCACAUGGUCAAUCUGGCUCUGGAUGGUGUCAGGAGCCGCCUGCAGAAGCCAAGGCCUUUCAGACUGUUCCCCAAAGGCUUUUCUGUGGAGCUUUGCCAACAGAGGAUUGAGCAUCA
B3: chr5:72198766:72198867:+|CDS|ENSG00000131711|msi1_unk|FALSE|overlapping (ssRNA)
RNA: GGGAGUUCUACAGUCCGACGAUCUUCUACCUCUGCAGUCAAAGAGAAAACAGCAACUUGCCACAGUUCCUCUUCUCCACCAAUAGAUGCAGCAUCCGCAGAGCCCUAUGGCUUCCGUGCCUCAGUGUUAUUCGAUACAAUGCACAACAGAGGAUUGAGCAUCA
B4: ENSG00000165219:stop:overlap|stop_codon|ENSG00000165219|stop_codon|NA|stop_codon (ssRNA)
RNA: GGGAGUUCUACAGUCCGACGAUCUACCUAUAGGUAAAGAGAAUUUCUCGUAUUGGAGCUUUCUCUUAAAUCUAAUAUUUCAUUAGCCUUUGUUAUUGCUGAGUGUUUUGGAACAUAUGUUUAAGUACUUGGGAAAGUCUUUCUCAACAGAGGAUUGAGCAUCA
B5: chr4:103158754:103158855:-|CDS|ENSG00000138778|msi1|FALSE|unique (ssRNA)
RNA: GGGAGUUCUACAGUCCGACGAUCGGAGAAAACACGUGAGGUUCAAGAAAGACUAAAUGAGAUGGAACAGCUGAAGGAACAAUUAGAAAAUAGAGAUUCUACGCUGCAAACUGUAGAAAGGGAGAAAACACUGAUUACUGAGAACAACAGAGGAUUGAGCAUCA
B6: chr14:100881274:100881386:-|CDS|ENSG00000254656|unk|FALSE|unique (ssRNA)
RNA: GGGAGUUCUACAGUCCGACGAUCCGCAGGCAGCAGCAUCACGACAGCCAUCACCCAGCUGCUCACCCAGAUGCCCGCUCUCGUAGGUGCAAACACCAUCCCAGCCCAGGAGCUGGCUGAGCUGUUCCUGGGCCCUGGCCGCUGCAACAGAGGAUUGAGCAUCA
B7: chr1:45693489:45693605:+|CDS|ENSG00000159596|unk|FALSE|unique (ssRNA)
RNA: GGGAGUUCUACAGUCCGACGAUCAAUCCCCUUCGUUGCUCCACCACUGGUCAUGCUGAUGACAAAAACUUAUAUUCCCAUAUUAGCUUUUACUCAGAUGGCUUAUGGAGCCAGUUUCCUAUCUUUCUUGGGUGGGAUCAGAUGCAACAGAGGAUUGAGCAUCA
B8: chr2:5695263:5695412:+|3pUTR|ENSG00000176887|msi1_unk|total|mutant (ssRNA)
RNA: GGGAGUUCUACAGUCCGACGAUCUGGUGAUACCGACCUCAGAGCUGUUAUCUCCGUUUAAAGAUUGUAUAUGUACUGUACUACCGCCGGACUUUAUGUAUCUCAUACGCUGUGAUGUGGAUGGGGCCCCAGAUGGAAGGUUUGCAACAGAGGAUUGAGCAUCA
B9: chr10:92050442:92050545:-|3pUTR|ENSG00000107864|unk|total|mutant (ssRNA)
RNA: GGGAGUUCUACAGUCCGACGAUCAUGAAGGCCUGCCCGCACCCGCGUGGACAUUUUUCCCGCAUUCACCCUUGGGCUGCAGACCGUAAUAUAUAAACACACACAAUGAUUGCAAGACUAUGUAAAUCUUUUUUUAAUCUUCUUCAACAGAGGAUUGAGCAUCA
B10: chr11:35231115:35231675:+|3pUTR|ENSG00000026508|msi1|total|mutant (ssRNA)
RNA: GGGAGUUCUACAGUCCGACGAUCCAGGACAAGGUUCAAAAUGGUUACAACAGCCUCUACCUGUCGCCCCAGGGAGAAAGGGGCCGUGAUACAAGUCUCACCGCCAGAGAUGGUUUUCCACUCCUUCCCGAUAUUCCCAAAAAGCAACAGAGGAUUGAGCAUCA
B11: chr4:24540214:24540319:-|CDS|ENSG00000109606|unk|FALSE|unique (ssRNA)
RNA: GGGAGUUCUACAGUCCGACGAUCUACUUUGUCACAUUUUUGCUUGCUUAAGGCACCGUGUCUAAUAGAUUGUCUUUUACCACUAGCUCCUGAAACUCUGAUGAGAGCCCUGGAACUUUUGAAUUACCUGGCUGCUUUAAAUGACAACAGAGGAUUGAGCAUCA
B12: chr4:175632990:175633131:-|3pUTR|ENSG00000150625|msi1|total|mutant (ssRNA)
RNA: GGGAGUUCUACAGUCCGACGAUCGUUGACACUUUUGGCUUUUAUUUCUGGUAUCCGAGUUUGUAUUUUCACAGAGUGCUUUGCCGCAGGCAUUACAAUUAAUCUGUUUUGUACAUAAAUGUGCCAACAGCUUGAUGGUGGCGUCAACAGAGGAUUGAGCAUCA
B13: chr5:175441761:175443099:-|CDS|ENSG00000184845|control|control|control (ssRNA)
RNA: GGGAGUUCUACAGUCCGACGAUCGAAGGCAUUUUCAACCCUCUUAGGAUGCUACAGACUUUGCCCUGCGACGAAUAAUGCCAUAGAGACGGUGAGUAUCAAUAACAAUGGGGCCGCGAUGUUUUCCAGCCAUCAUGAGCCACGCAACAGAGGAUUGAGCAUCA
B14: chr14:77132432:77132533:-|3pUTR|ENSG00000177108|unk|FALSE|unique (ssRNA)
RNA: GGGAGUUCUACAGUCCGACGAUCUGUGAUUGCUGGACCCAGAGGCAAGAUCUGCAGAGAUGCCUGUGAGAUAUUUGCUUUCCUAGAGGGGAGUGUGGGCAUGGGAGGGGUCUGAAAAUCAGGACCCAACCCAGCCACUGAAGACAACAGAGGAUUGAGCAUCA
B15: chr5:16781720:16781826:-|CDS|ENSG00000145555|unk|total|mutant (ssRNA)
RNA: GGGAGUUCUACAGUCCGACGAUCCUUCACAGCCCCAUCAUGGAAGCUUUCGGCAAUGCGAAGACCGUGUACAACAACAACUCCCGUCGCUUUGGGAAGUUUGUUCAGCUGAACAUCUGUCAGAAAGGAAAUAUUCAGGGCGGGCAACAGAGGAUUGAGCAUCA
B16: chr18:47206168:47206892:-|three_prime_utr|ENSG00000215474|control|control|control (ssRNA)
RNA: GGGAGUUCUACAGUCCGACGAUCCAGGUUCAGGAGAACCUAAGGACAAGUGACCUCAAAACAGCAUGGACAACCAUGUAAAAUAGACUGUAGCAGCCAUUCAUUAGUGGGGGGAGGGGGGAGCCAACCAGAGCAGUCAAUGCUCAACAGAGGAUUGAGCAUCA
B17: chr20:4700004:4700108:+|3pUTR|ENSG00000171867|msi1|total|mutant (ssRNA)
RNA: GGGAGUUCUACAGUCCGACGAUCUCACCAUCUUUCUAAUCUUUUUCCAGCUUGAGGGAGGCGGUAUCCACCUGCAGCCCUUUCCGUGGUGGUGUCUCACUCUUUCUUCUCUCUUUGUCCCGGACCGGCUAAUCAAUACCCUUGCAACAGAGGAUUGAGCAUCA
B18: chr17:39792672:39792933:-|CDS|ENSG00000161405|control|control|control (ssRNA)
RNA: GGGAGUUCUACAGUCCGACGAUCAGAGAAUAUAAUGAAUAUGAAAACAUUAAGUUGGAGAGACAUGUUGUCUCAUUCGAUAGUAGCAGGCCAACCAGUGGAAAGAUGAACUGCGAUGUGUGUGGAUUAUCCUGCAUCAGCUUCCAACAGAGGAUUGAGCAUCA
B19: chrX:13708825:13708941:+|CDS|ENSG00000123595|unk|FALSE|unique (ssRNA)
RNA: GGGAGUUCUACAGUCCGACGAUCGAGUUCACUUAUGAACAGAUAUGUAACUAAUAAGUUUGAUACCCAGCUCUUCCAUACAAUAGGUGUGGAAUUUUUAAAUAAAGAUUUGGAAGUGGAUGGACAUUUUGUUACCAUGCAGAUCAACAGAGGAUUGAGCAUCA
B20: chr4:108667705:108667793:+|3pUTR|ENSG00000198856|msi1_unk|FALSE|overlapping (ssRNA)
RNA: GGGAGUUCUACAGUCCGACGAUCUCUGGACAGUUGAUCAGCUUUACCUAUGGUGCUUUGCCUUUAACUAGAGUGUGUGAUGGUAGAUUAUUUCAGAUAUGUAUGUAAAACUGUUUCCUGAACAAUAAGAUGUAUGAACGGAGCCAACAGAGGAUUGAGCAUCA
B21: chr18:35263486:35263657:-|CDS|ENSG00000186814|control|control|control (ssRNA)
RNA: GGGAGUUCUACAGUCCGACGAUCGGAAAUGACAUCCACAGGAGCACUGAAGUCUCUGUCUCUGAAUAGCCCGGUGCAGCCCUUAGAGAACCAGUGCAAGACUGAGACUCAGGAGUCCCAGGCUUUCCAGGAGAGAGGUGAGAACAACAGAGGAUUGAGCAUCA
B22: chr5:113014749:113014850:+|3pUTR|ENSG00000172795|msi1|FALSE|unique (ssRNA)
RNA: GGGAGUUCUACAGUCCGACGAUCUAAAAAUCCUUUUUUACAGUGGUAUCCACAAAAUACUUCUCUGCUUAUAAAUGUUAUUGUAGAAAUCUUUAUUCUGUGUAGGUAGCCUAUUUAAUUGGGUUCCACUGAACCUCAUGGGACCAACAGAGGAUUGAGCAUCA

The target in this assay is T1, UNK ZnF1-6 (called full-length). Put plainly: nsRBNS (natural sequence RNA bind-n-seq); RBNS binding buffer (assumed for nsRBNS): 25 mM Tris pH 7.5, 150 mM KCl, 3 mM MgCl2, 0.01% Triton X-100, 500 ug/ml BSA, 20 U/ml SUPERase-In, 4 C; UNK is unkempt and MSI1 is Musashi-1; names of the RNAs are library labels; protein concentration not given here; high values mean tight binding.
Consider B1, for which the binding signal is 1.08 enrichment R. Consider B2, for which the binding signal came out at 0.676 enrichment R. With B3 the figure was 0.59 enrichment R; with B4, 1.01 enrichment R; with B5, 1.81 enrichment R. In the case of B6, the binding signal came to 0.537 enrichment R. The result for B7 reads 1.03 enrichment R; that for B8, 0.801 enrichment R; that for B9, 1.63 enrichment R.

B10 yielded a binding signal of 0.541 enrichment R. In the case of B11, the binding signal stood at 0.313 enrichment R. With B12 the figure was 0.357 enrichment R; with B13, 0.77 enrichment R; with B14, 0.647 enrichment R. The result for B15 reads 0.746 enrichment R; that for B16, 1.21 enrichment R; that for B17, 0.974 enrichment R.

For the molecule B18, the binding signal turned out to be 0.774 enrichment R. The result for B19 reads 0.561 enrichment R; that for B20, 0.53 enrichment R; that for B21, 0.723 enrichment R. As to B22, the binding signal is 0.913 enrichment R.
